Tests used:
dansylated calmodulin [1] = target: T1, dansylated calmodulin (rat, UniProt P0DP30, dansyl group covalently bound to CaM (position not given)); assay: other fluorescence titration; 12.5 nM D-CaM, ligand added incrementally, enhancement of dansyl emission; 25 mM Tris-HCl, 120 mM KCl, 5 mM NaCl, 2 mM MgCl2, 10 mM EGTA, pH 7.4; no free Ca2+; apparent affinity (EC50 of a Hill fit); settings: both partners purified
T1 construct: calmodulin, rat brain, NM_017326; also called D-CaM; dansyl-CaM

dansylated calmodulin [2] = target: T1, dansylated calmodulin; assay: other fluorescence titration; 12.5 nM D-CaM, ligand added incrementally, enhancement of dansyl emission; D-CaM binding buffer with 3.9 µM free Ca2+ (9.63 mM Ca2+, 2 mM Mg2+, 10 mM EGTA, pH 7.4); apparent affinity (EC50 of a Hill fit); settings: both partners purified

EC50 (dansylated calmodulin [1]): 13.7 nM | EC50 (dansylated calmodulin [2]): 9.2 nM
B1: rat KCa2.2 (SK2) CaM binding domain ([…]) (domain or fragment)
chain: not shown
notes: cDNA from John P. Adelman; also called SK2 CaMBD; source: purified as described [9]; not shown: 6xHis, C-terminal, kept

From PMC3904923, “Pivoting between Calmodulin Lobes Triggered by Calcium in the Kv7.2/Calmodulin Complex” (PLoS ONE, 2014)
